Assay results: PubChem BioAssay AID720708 (National Center for Advancing Translational Sciences (NCATS), 2013)
About 660 (0.18%) of roughly 360,000 compounds were called active. Inconclusive results, whose numbers are uncertain, are shown with a selection of clear calls. Calls come from the whole dose curve; as a rule, active = well fitted inhibition curve with a large enough effect; inconclusive = small, poorly fitted or top-dose-only effect; inactive = no such curve, though single readings can be large or run the other way. Potencies of inconclusive entries are left out as doubtful fits.

target: Rap guanine nucleotide exchange factor 4 (Homo sapiens) (UniProt Q8WZA2); assay: qHTS for Antagonist of cAMP-regulated guanine nucleotide exchange factor 2 (EPAC2): primary screen; conditions: EPAC2 GEF exchange of Rap1B-BODIPY-GDP, fluorescence; activity, negative = inhibition: at 114 µM (top of the series) unless noted; note: nearly all actives have a fitted effect of over 45% in size
Chain of UniProt Q8WZA2 (Q8WZA2 whole entry, looked up): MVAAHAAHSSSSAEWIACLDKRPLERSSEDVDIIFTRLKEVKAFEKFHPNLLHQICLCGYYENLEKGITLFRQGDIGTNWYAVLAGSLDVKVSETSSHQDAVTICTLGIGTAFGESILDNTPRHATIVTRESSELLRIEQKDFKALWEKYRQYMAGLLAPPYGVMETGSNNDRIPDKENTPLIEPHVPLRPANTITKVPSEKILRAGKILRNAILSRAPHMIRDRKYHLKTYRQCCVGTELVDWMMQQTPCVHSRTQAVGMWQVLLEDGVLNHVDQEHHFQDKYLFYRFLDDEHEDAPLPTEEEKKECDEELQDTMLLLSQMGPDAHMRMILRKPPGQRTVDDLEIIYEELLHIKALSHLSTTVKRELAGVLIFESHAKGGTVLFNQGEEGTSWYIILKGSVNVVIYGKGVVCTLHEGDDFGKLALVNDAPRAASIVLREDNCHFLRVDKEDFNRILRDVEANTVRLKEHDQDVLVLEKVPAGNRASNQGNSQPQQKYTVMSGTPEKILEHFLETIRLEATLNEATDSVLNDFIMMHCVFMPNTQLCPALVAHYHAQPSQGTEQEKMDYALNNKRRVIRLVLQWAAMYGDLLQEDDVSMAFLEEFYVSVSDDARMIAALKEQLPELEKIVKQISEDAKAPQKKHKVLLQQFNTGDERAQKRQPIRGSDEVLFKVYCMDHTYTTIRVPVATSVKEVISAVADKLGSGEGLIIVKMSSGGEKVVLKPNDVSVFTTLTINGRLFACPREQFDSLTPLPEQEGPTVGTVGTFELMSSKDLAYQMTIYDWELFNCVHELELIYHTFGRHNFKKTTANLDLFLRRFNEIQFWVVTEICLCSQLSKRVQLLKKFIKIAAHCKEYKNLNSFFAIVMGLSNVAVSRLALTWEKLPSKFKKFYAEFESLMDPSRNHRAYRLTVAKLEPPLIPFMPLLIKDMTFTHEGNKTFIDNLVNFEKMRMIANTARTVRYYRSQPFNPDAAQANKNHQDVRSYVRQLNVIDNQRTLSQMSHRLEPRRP
% is set by controls: 0 for no effect and ±100 for the full control effect; potency is the fitted concentration of half-maximal effect; tags give direction and shape of the fitted curve.

Structure (SMILES)	Potency	activity, negative = inhibition
Cc1ccc(NC(=O)COC(=O)c2ccccc2-c2nc3ccccc3s2)c(C)c1	inconclusive [inhibitor, partial curve]	–
CCOc1cc(/C=N/Nc2cccc(C(=O)O)c2)ccc1OC(=O)c1ccccc1	inconclusive [inhibitor, full curve, poor fit]	–
CC(NC(=O)COC(=O)c1ccc([N+](=O)[O-])s1)c1ccccc1 (configuration not stated)	inconclusive [inhibitor, partial curve]	–
O=C1NC(c2cc(Cl)cc([N+](=O)[O-])c2O)Nc2ccccc21 (configuration not stated)	inconclusive [inhibitor, partial curve]	–
CCCCNC(=O)c1sc(=S)n2c1[nH]c(=O)c1ccc(C(=O)NCCc3ccc(OC)c(OC)c3)cc12	inconclusive [inhibitor, full curve]	–
C#Cc1cccc(Nc2nc(NCc3ccccc3OC)nc3ccsc23)c1	–	inactive: 11.7%
COc1cc2cc(C)nc(Cc3cccc4ccccc34)c2cc1OC	inconclusive [inhibitor, full curve]	–
O=C1C(Cl)=C(N2CCCCCC2)C(=O)N1c1ccccc1Cl	inconclusive [inhibitor, full curve, poor fit]	–
N#CC1=C(N)Oc2ccc3ccc(O)cc3c2C1c1ccsc1 (configuration not stated)	inconclusive [inhibitor, single point]	–
Cc1cccc(CS(=O)(=O)Cc2ccc(C(=O)NC(C)c3ccccc3)o2)c1 (configuration not stated)	–	inactive: 2.76%
Fc1ccccc1C1CCN(Cc2nc(COc3ccccc3)no2)C1 (configuration not stated)	–	inactive: -6.47%
C=CCn1c(SCc2c(Cl)cccc2Cl)nnc1-c1cccnc1	–	inactive: 15.1%
CC(C)n1c(COc2ccccc2)nc2ccccc21	inconclusive [inhibitor, partial curve]	–
COc1cccc2c(N/N=C/c3ccccc3)cc(C)nc12	inconclusive [inhibitor, partial curve]	–
CC(=O)N1N=C(c2cccc(NS(C)(=O)=O)c2)CC1c1ccc2c(c1)OCO2 (configuration not stated)	inconclusive [inhibitor, single point]	–
COc1ccccc1-c1sc2ccccc2c1-c1ccc(Br)nc1	inconclusive [inhibitor, full curve]	–
Cc1cc(Br)cc(Cl)c1OC(=O)c1ccncc1	inconclusive [inhibitor, partial curve]	–
Cc1ccc(S(=O)(=O)N2CCN=C2SCc2ccccc2)cc1	–	inactive: -20.3%
Cc1ccc(NC(=O)COC(=O)Cc2ccsc2)c(C)c1	inconclusive [inhibitor, full curve, poor fit]	–
COc1cccc(C2CC(=O)Nc3cc(C)c(C)cc32)c1 (configuration not stated)	inconclusive [inhibitor, full curve]	–
CCC1Nc2ncnc(N3CCc4ccccc4C3)c2N(Cc2ccc(Br)cc2)C1=O (configuration not stated)	inconclusive [inhibitor, partial curve, poor fit]	–
Cc1ccc(S(=O)(=O)c2cc3c(=O)n4ccccc4nc3n(Cc3ccco3)c2=N)cc1C	inconclusive [inhibitor, partial curve]	–
COc1ccc(C(=O)CCN2CCN(c3ccccc3F)CC2)cc1	–	inactive: 2.09%

Structure (SMILES)	Potency	activity, negative = inhibition
CCN(CC)c1ccc(/C=N/NC(=O)Cc2cccs2)c(O)c1	inconclusive [inhibitor, partial curve]	–
CCOC(=O)C(Cc1ccccc1)C(=O)c1ccco1 (configuration not stated)	inconclusive [inhibitor, partial curve, poor fit]	–
Cc1cccc(C(=O)OCC(=O)NCCCc2ccccc2)c1O	inconclusive [inhibitor, full curve]	–
CC1CCc2cccc3c2N1c1cc(C#N)c(C#N)cc1O3 (configuration not stated)	–	inactive: 3.38%
CN(C(=O)c1cc2c(cc1Br)OCO2)c1cccc2ccccc12	inconclusive [inhibitor, single point]	–
Cc1nc(CN(C)c2ncnc3ccc(-c4ccc5c(c4)OCO5)cc23)cs1	active: 31.6 µM	–
COC(=O)/C(=C1/Oc2ccc(C(C)(C)C)cc2S1)C(F)(F)F	inconclusive [inhibitor, full curve, poor fit]	–
CC(=O)N1CCC(C(=O)OCc2ccc(Cl)cc2)(c2ccccc2)CC1	inconclusive [inhibitor, full curve]	–
COc1cc(C=C2Cc3ccccc3C2=O)cc(OC)c1OC	–	inactive: 6.7%
N#CCC(=O)Nc1ccc(C(=O)OCC(=O)Nc2ccccc2Sc2ccccc2)cc1	inconclusive [inhibitor, partial curve]	–
COc1ccc(CNC(=O)CN2CCN(C(c3ccccc3)c3ccccc3)CC2)cc1	inconclusive [inhibitor, partial curve]	–
C/C(N)=C(/C#N)C(=O)CSc1nnc(-c2ccc(OC(F)F)cc2)o1	inconclusive [inhibitor, full curve, poor fit]	–
O=C(O)c1ccnc(C(=O)O)c1	–	inactive: 6.78%
Cc1ccc(C)c(Oc2nnnn2-c2ccccc2)c1	inconclusive [inhibitor, partial curve]	–
O=S(=O)(O)c1cc(O)c(N=Nc2ccc(O)cc2O)c2ccccc12	active: 44.7 µM	–
O=C(O)c1cccc(NC(=S)N/N=C/c2c[nH]c3ccccc23)c1	–	inconclusive: -19% [inhibitor]
Cc1ccc(S(=O)(=O)NC(=O)C2(C)CCN2C(=O)c2ccccc2)cc1 (configuration not stated)	–	inactive: 0.743%
COc1ccc(C(C#N)N2CCC(c3ccccc3)=N2)cc1OC (configuration not stated)	inconclusive [inhibitor, partial curve]	–
COCCn1c(SCC(=O)NCCc2ccc(OC)c(OC)c2)nc2c([nH]c3ccccc32)c1=O	–	inconclusive: -14.7% [inhibitor]
CCC(=O)NC(c1ccc(N(C)C)cc1)c1c(O)ccc2ccccc12 (configuration not stated)	inconclusive [inhibitor, partial curve]	–
CC(C)(C)C1(O)CC(C(F)(F)F)=NN1C(=O)CCc1ccccc1 (configuration not stated)	inconclusive [inhibitor, partial curve]	–
O=c1[nH]c(=S)[nH]c2c1C(c1ccc(Cl)cc1)OC(CCc1ccccc1)C2 (configuration not stated)	–	inconclusive: -1.09% [inhibitor]
Clc1ccccc1NN(Cc1ccccn1)c1ccccc1Cl	inconclusive [inhibitor, full curve]	–

Structure (SMILES)	Potency	activity, negative = inhibition
COc1ccc(S(=O)(=O)N2CCC[C@H]2C(=O)N2CCC[C@H]2C(=O)NCc2ccncc2)cc1C	–	inactive: 1.06%
Cc1ccc(CN2C(=NC(=O)CCC(=O)O)SC3CS(=O)(=O)CC32)cc1 (configuration not stated)	–	inactive: 0.513%
COC(=O)C1=CN(c2cc(C)cc(C)c2)C=C(C(=O)OC)C1c1ccc(OC)c(O)c1	inconclusive [inhibitor, partial curve]	–
COc1ccc(CC(=O)N2CCN=C2SCc2cccc([N+](=O)[O-])c2)cc1	inconclusive [inhibitor, partial curve, poor fit]	–
CCCCc1ccc(/C=C(\C#N)C(N)=S)s1	inconclusive [inhibitor, single point]	–
CCOC(=O)c1c(C)oc2c1c(CN1CCN(CCO)CC1)c(O)c1ccccc12	inconclusive [inhibitor, partial curve]	–
CCOC(=O)c1c(CSc2ccccc2)n(C)c2cc(Br)c(OCC(O)CNC(CO)(CO)CO)cc12 (configuration not stated)	active: 39.8 µM	–
CC(Cc1cccs1)NC(=S)Nc1ccc(Cl)cc1 (configuration not stated)	inconclusive [inhibitor, partial curve]	–
CC(=O)N1CCOc2ccc(S(=O)(=O)NCC3CCC(C(=O)Nc4ncccc4C)CC3)cc21 (configuration not stated)	–	inactive: 1.1%
CCN(CC)S(=O)(=O)c1ccc(/C=C/C(=O)OCC(=O)c2c(N)n(C)c(=O)n(C)c2=O)cc1	inconclusive [inhibitor, single point]	–
CSCC[C@H](NC(=O)NCCc1ccc(F)cc1)C(=O)O	inconclusive [inhibitor, partial curve]	–
Cc1cc(N=Nc2ccccc2)cc(C)c1NC(=O)C(F)(F)F	inconclusive [inhibitor, full curve, poor fit]	–
COc1ccc(-c2nc3c(C)cc(Br)cn3c2CC2CCCCC2)cc1OC	inconclusive [inhibitor, partial curve]	–
O=C(NCCCc1ccccc1)c1cccc(NC(=O)C2CCCC2)c1	inconclusive [inhibitor, single point]	–
Cc1ccc(CC(=O)N2CCC(c3nc4c(nnn4Cc4ccccc4)c(=O)[nH]3)CC2)cc1	inconclusive [inhibitor, full curve]	–
O=C(Nc1ccccc1Cl)c1ccc(C(=O)Nc2ccccc2Cl)cc1	inconclusive [inhibitor, full curve, poor fit]	–
Cc1ccc2oc(C(=O)Nc3ccc(S(=O)(=O)Nc4onc(C)c4C)cc3)c(C)c2c1	inconclusive [inhibitor, partial curve]	–
Cc1cccc(C(=O)N2CCC(=O)N([C@H](COCc3cccc(C(F)(F)F)c3)Cc3ccccc3)CC2)c1	inconclusive [inhibitor, partial curve]	–
CCOc1ccc(CCNC(=O)c2cccc3c2C(=O)N(CCOC)C3)cc1OCC	–	inactive: -1.62%
O=C(CSCCN1C(=O)c2ccccc2C1=O)Nc1ccc2ccccc2c1	inconclusive [inhibitor, full curve, poor fit]	–
CC1(C)OC(=O)NC1c1ccccc1 (configuration not stated)	–	inactive: 3.05%
